Reference: patent US20230141575A1 (CITY OF HOPE, published 2023)

B1: 1215-1045 null (IL-15_linker1_HC Fab_linker2_IL-15Ra and LC Fab) (other)
heavy: [about 120 residues cut from this listing]GGVPLSLYSGG[about 120 residues cut from this listing]ASTKGPSVFPLAPSSKSTSGGTAALGCLVKDYFPEPVTVSWNSGALTSGVHTFPAVLQSSGLYSLSSVVTVPSSSLGTQTYICNVNHKPSNTKVDKKVEPKSCGGGSGAGAGITCPPPMSVEHADIWVKSYSLYSRERYICNSGFKRKAGTSSLTECVLNKATNVAHWTTPSLKCIRDPALVHQRPAPPS
light: DIQMTQSPILLSASVGDRVTITCRASQDVNTAVAWYQQRTNGSPRLLIYSASFLYSGVPSRFSGSRSGTDFTLTISSLQPEDIADYYCQQHYTTPPTFGAGTKVEIKRTVAAPSVFIFPPSDEQLKSGTASVVCLLNNFYPREAKVQWKVDNALQSGNSQESVTEQDSKDSTYSLSSTLTLSKADYEKHKVYACEVTHQGLSSPVTKSFNRGEC
notes: Fab-cytokine fusion, not treated with MMP ('null'); also called IL-15-Fab complex 1215-1045
B2: 1215-1047 null (IL-15_linker1_HC Fab_linker2_IL-15Ra and LC Fab, Cys mutations IL-15Ra-P67C, IL-15-E90C) (other)
heavy: [about 120 residues cut from this listing]GGVPLSLYSGG[about 120 residues cut from this listing]ASTKGPSVFPLAPSSKSTSGGTAALGCLVKDYFPEPVTVSWNSGALTSGVHTFPAVLQSSGLYSLSSVVTVPSSSLGTQTYICNVNHKPSNTKVDKKVEPKSCGGGSGAGAGITCPPPMSVEHADIWVKSYSLYSRERYICNSGFKRKAGTSSLTECVLNKATNVAHWTTPSLKCIRDCALVHQRPAPPS
light: B1 light
notes: Fab-cytokine fusion, not treated with MMP; The cysteines at IL-15 position 90 and IL-15Ra position 67 are meant to form a disulfide bond between IL-15 and the sushi domain
B3: 1215-1046 null (IL-15_linker1_HC Fab_linker2_IL-15Ra and LC Fab, non-cleavable linker) (other)
heavy: [about 120 residues cut from this listing]GGSPSGASGS[about 120 residues cut from this listing]ASTKGPSVFPLAPSSKSTSGGTAALGCLVKDYFPEPVTVSWNSGALTSGVHTFPAVLQSSGLYSLSSVVTVPSSSLGTQTYICNVNHKPSNTKVDKKVEPKSCGGGSGAGAGITCPPPMSVEHADIWVKSYSLYSRERYICNSGFKRKAGTSSLTECVLNKATNVAHWTTPSLKCIRDPALVHQRPAPPS
light: B1 light
notes: Fab-cytokine fusion with a non-cleavable linker 1
B4: 1215-1048 null (IL-15_linker1_HC Fab_linker2_IL-15Ra and LC Fab, non-cleavable linker, Cys mutations IL-15Ra-P67C, IL-15-E90C) (other)
heavy: [about 120 residues cut from this listing]GGSPSGASGS[about 120 residues cut from this listing]ASTKGPSVFPLAPSSKSTSGGTAALGCLVKDYFPEPVTVSWNSGALTSGVHTFPAVLQSSGLYSLSSVVTVPSSSLGTQTYICNVNHKPSNTKVDKKVEPKSCGGGSGAGAGITCPPPMSVEHADIWVKSYSLYSRERYICNSGFKRKAGTSSLTECVLNKATNVAHWTTPSLKCIRDCALVHQRPAPPS
light: B1 light
notes: Fab-cytokine fusion with a non-cleavable linker 1 and the Cys mutations

Each binder was assayed against T1, IL-15 receptor subunit β (IL-15Rβ)-Fc (UniProt P14784 27-239) (assay: SPR, IL-15Rβ-Fc immobilized on chip).
T1 construct: also called IL-15R13-Fc; IL-2/15β receptor; not shown: Fc part
T1 sequence (looked up): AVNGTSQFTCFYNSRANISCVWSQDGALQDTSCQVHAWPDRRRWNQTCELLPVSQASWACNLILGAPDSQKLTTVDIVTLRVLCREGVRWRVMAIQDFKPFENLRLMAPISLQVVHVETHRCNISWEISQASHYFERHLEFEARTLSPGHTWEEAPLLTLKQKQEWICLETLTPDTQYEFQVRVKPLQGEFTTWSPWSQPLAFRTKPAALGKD

| Binder | Kd | koff | kon |
| --- | --- | --- | --- |
| B1 | 21.9 nM | 0.00256 s⁻¹ | 117000 M⁻¹ s⁻¹ |
| B2 | 22.9 nM | 0.00375 s⁻¹ | 164000 M⁻¹ s⁻¹ |
| B3 | 20.5 nM | 0.00308 s⁻¹ | 150000 M⁻¹ s⁻¹ |
| B4 | 33.4 nM | 0.00632 s⁻¹ | 189000 M⁻¹ s⁻¹ |
